# Laboratory results as given in PubChem BioAssay AID2147 (National Center for Advancing Translational Sciences (NCATS), 2009).
# Out of some 230,000 compounds screened, about 3,600 (1.6%) were called active. The inconclusive results got no clear call from the source; some entries with a clear call stand among them for comparison. Calls come from the whole dose curve; as a rule, active = well fitted inhibition curve with a large enough effect (not every such curve was filed as active); inconclusive = small, poorly fitted or top-dose-only effect, or another doubt; inactive = no such curve, though single readings can be large or run the other way. Where the call is inconclusive, the potency comes from a doubtful curve fit.
# Target: Lysine-specific demethylase 4E (Homo sapiens) (UniProt B2RXH2)
# UniProt B2RXH2, sequence (B2RXH2 whole entry, looked up, the tested form may be a part): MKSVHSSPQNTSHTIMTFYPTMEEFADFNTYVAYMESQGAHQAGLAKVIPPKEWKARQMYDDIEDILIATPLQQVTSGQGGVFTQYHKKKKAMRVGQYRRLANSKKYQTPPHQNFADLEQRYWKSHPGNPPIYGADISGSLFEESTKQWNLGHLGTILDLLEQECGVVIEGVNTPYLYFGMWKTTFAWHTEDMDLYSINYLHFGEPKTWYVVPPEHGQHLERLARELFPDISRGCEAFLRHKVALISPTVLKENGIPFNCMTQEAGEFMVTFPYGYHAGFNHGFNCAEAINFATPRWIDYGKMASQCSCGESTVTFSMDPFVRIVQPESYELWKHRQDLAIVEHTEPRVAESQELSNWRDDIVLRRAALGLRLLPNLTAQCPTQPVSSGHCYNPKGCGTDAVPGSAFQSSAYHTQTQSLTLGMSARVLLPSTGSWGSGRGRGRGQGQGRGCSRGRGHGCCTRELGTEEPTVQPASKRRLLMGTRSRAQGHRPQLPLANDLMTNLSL
# Assay: qHTS Assay for Inhibitors of Human Jumonji Domain Containing 2E (JMJD2E)
# Settings: JMJD2E catalytic domain, FDH-coupled NADH fluorescence (FDH is formaldehyde dehydrogenase); series mostly up to 57.1 µM; activity change, negative = inhibition: at the top concentration
# Note: nearly all actives have a fitted effect of over 50% in size.
# Potency is the fitted concentration of half-maximal effect; tags give direction and shape of the fitted curve.
# 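Throughout, for activity change, negative = inhibition: 0% = wells with enzyme and -100% = buffer wells without enzyme.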
Compound,Potency,"activity change, negative = inhibition"
CCC(=O)Nc1nc2n(n1)C(c1ccc(OC)cc1)C=C(c1ccccc1)N2 (stereo not given),"inconclusive: 28.2 µM [inhibitor, partial curve]",–
O=C(Nc1nnc(-c2ccncc2)o1)c1ccc(Br)s1,"inconclusive: 35.5 µM [inhibitor, single point]",–
O=c1nc(N2CCOCC2)ccn1-c1nc(-c2ccccc2)oc1-c1ccccc1,"inconclusive: 35.5 µM [inhibitor, single point]",–
CCN(CC)c1ncnc2ccc(Br)cc12,–,inactive: 1.41%
O=c1[nH]c2c(cc1CNCCN1CCOCC1)c(-c1cccc(F)c1)nn2-c1ccccc1,"inconclusive: 28.2 µM [inhibitor, partial curve]",–
Cc1cc(C)c(OCCN2CC(C)OC(C)C2)c(Br)c1 (stereo not given),"inconclusive: 28.2 µM [inhibitor, single point]",–
Cc1cc(-c2ccccc2)nc(N2CCN(c3ccccn3)CC2)n1,"inconclusive: 28.2 µM [inhibitor, partial curve]",–
Cc1ccc(OCCCCNC2CCCCC2)c(C)c1,"inconclusive: 28.2 µM [inhibitor, single point]",–
COc1ccc2cc(CN(CC3CCCO3)S(=O)(=O)c3ccc(C(C)=O)cc3)c(=O)[nH]c2c1 (stereo not given),–,inactive: -5.18%
CC(=O)C1=C(S(=O)(=O)c2ccc(C)cc2)CS(=O)(=O)C1,active: 14.1 µM,–
Cc1ccc(-c2cc(-c3ccccc3)no2)c(O)c1,–,inactive: -7.63%
O=C(/C=C/Nc1ccccc1C(=O)O)c1cccs1,"inconclusive: 25.1 µM [inhibitor, partial curve]",–
CCC1CCc2c(sc(NC(=O)c3cccnc3)c2C(N)=O)C1 (stereo not given),"inconclusive: 22.4 µM [inhibitor, partial curve]",–
COc1ccc2c(c1)[nH]c1c(=O)n(/N=C/c3ccc(OC)c(CN4CCCC4)c3)cnc12,"inconclusive: 28.2 µM [inhibitor, single point]",–
CCC1CCCCN1CCCNC(=O)Cn1nc(-c2ccc(C)cc2)ccc1=O (stereo not given),"inconclusive: 25.1 µM [inhibitor, single point]",–
Cc1cc(C(C)(C)C)cc(S(=O)(=O)Nc2ccc(O)c(C(=O)O)c2)c1C,"inconclusive: 31.6 µM [inhibitor, partial curve]",–
COc1cccc(/C=N/n2c(-c3cc(C)[nH]n3)n[nH]c2=S)c1O,"inconclusive: 39.8 µM [inhibitor, single point]",–
O=C(Cn1c(=O)[nH]n(-c2ccccc2)c1=O)N1CCCc2ccccc21,–,inactive: -1.08%
COc1ccc(-c2cc(C(=O)NC(Cc3c[nH]c4ccccc34)C(=O)O)c(C)o2)cc1OC (stereo not given),"inconclusive: 10 µM [inhibitor, partial curve]",–
O=C(Nc1nnc(-c2cccs2)s1)c1cccc(F)c1,"inconclusive: 7.08 µM [inhibitor, single point]",–
Cn1cccc1C1NC(=O)c2c(sc3c2CCC(C(C)(C)C)C3)N1 (stereo not given),"inconclusive: 39.8 µM [inhibitor, single point]",–
COc1ccc(-c2nsc3c(N4CCCCC4C)ncnc23)cc1 (stereo not given),"inconclusive: 25.1 µM [inhibitor, partial curve]",–
NC1=NN=C(N2N=C(c3ccco3)CC2(O)C(F)(F)F)n2ncnc2C1 (stereo not given),"inconclusive: 31.6 µM [inhibitor, partial curve]",–

Compound,Potency,"activity change, negative = inhibition"
NS(=O)(=O)c1cccc(NC(=O)Cc2ccc(Cl)c(Cl)c2)c1,–,inactive: -9.81%
COc1ccccc1-n1cnnc1SCC(=O)N1CCN(S(=O)(=O)c2ccccc2)CC1,–,inactive: -3.22%
CCCOC(=O)CCCCCCCCC(O)CN1CCCCC1 (stereo not given),–,inactive: -1.41%
CCCCN(CC)c1nc(N)c2c(N)nc(OCC)cc2c1C#N,"inconclusive: 35.5 µM [inhibitor, partial curve]",–
Cn1cc(/C=C2\SC(=S)N(NC(=O)c3cccc(Cl)c3)C2=O)c2ccccc21,–,inactive: -0.187%
COc1ccc(Nc2ncccc2C(=O)NCc2ccccc2)cc1,–,inactive: -4.01%
COc1ccc(S(=O)(=O)NCCSC(C)(C)C)c(Cl)c1Cl,–,inactive: -3.13%
CC(=O)N1CCN(c2ccc(Nc3nc(C)nc4c3oc3ccccc34)cc2)CC1,"inconclusive: 31.6 µM [inhibitor, single point]",–
Cc1ccc(C)c(S(=O)(=O)Nc2ccc(O)c(Sc3ncn[nH]3)c2)c1,–,inactive: -11%
COc1ccc2c(c1)C(=O)[C@H](OC(=O)NCCOc1ccccc1)[C@@H](c1ccc(OC)c(Br)c1)O2,"inconclusive: 39.8 µM [inhibitor, single point]",–
COc1ccccc1NS(=O)(=O)c1cc(NC(=O)c2sc3cc(Cl)ccc3c2Cl)ccc1C,"inconclusive: 20 µM [inhibitor, partial curve]",–
CCN(CC)CCCN=Cc1c(O)n(-c2ccccc2C)c(=O)c2ccccc12,"inconclusive: 28.2 µM [inhibitor, partial curve]",–
C/C(=N\NC(=O)Cc1ccc(Cl)cc1)c1ccccn1,"inconclusive: 35.5 µM [inhibitor, single point]",–
O=C(Nc1nc2ccccc2n1CCOc1ccccc1)c1ccco1,"inconclusive: 25.1 µM [inhibitor, single point]",–
CC(=O)Nc1nc(-c2cccs2)cs1,"inconclusive: 39.8 µM [inhibitor, single point]",–
COC(=O)c1cc2sccc2n1Cc1nc(-c2cccc(Cl)c2)oc1C,"inconclusive: 39.8 µM [inhibitor, single point]",–
O=C(Nc1ccc(NC(=O)C2CC2)cn1)c1ccccc1Cl,–,inactive: -5.12%
COc1ccc(OC)c(C=Nc2ccccc2-c2nc3ccccc3[nH]2)c1,"inconclusive: 28.2 µM [inhibitor, partial curve]",–
COc1cccc2c3c(c(C)nc12)CC(CO)O3 (stereo not given),"inconclusive: 31.6 µM [inhibitor, partial curve]",–
Cc1ccccc1N1C(=O)C(Cl)=C(N2CCCCCC2)C1=O,–,inactive: -5.58%
CC(=O)N(CC(=O)Nc1nn(-c2ccccc2)nc1C(N)=O)Cc1ccccc1,"inconclusive: 28.2 µM [inhibitor, partial curve]",–
CN(C)/C=C/C(=O)/C=C/c1cn(-c2ncc(C(F)(F)F)cc2Cl)c2ccccc12,"inconclusive: 22.4 µM [inhibitor, single point]",–
